Each structure is given as a SMILES string. Screen size: about 110,000 compounds; about 230 (0.21%) showed an effect of 50% or more. This is one part of the list.
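Also: 30 min substrate incubation versus DMSO and 10 µM JCP410 controls.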

This assay deals with DPAP1 (Plasmodium falciparum, UniProt Q8IIJ9). The assay is described as follows: primary screen, percent inhibition; read by cleavage of a fluorogenic dipeptide substrate; higher = more effect of the substance. Also noted: species or system P. falciparum D10 trophozoite lysates; single well.
DPAP1, sequence (Q8IIJ9 whole entry, looked up): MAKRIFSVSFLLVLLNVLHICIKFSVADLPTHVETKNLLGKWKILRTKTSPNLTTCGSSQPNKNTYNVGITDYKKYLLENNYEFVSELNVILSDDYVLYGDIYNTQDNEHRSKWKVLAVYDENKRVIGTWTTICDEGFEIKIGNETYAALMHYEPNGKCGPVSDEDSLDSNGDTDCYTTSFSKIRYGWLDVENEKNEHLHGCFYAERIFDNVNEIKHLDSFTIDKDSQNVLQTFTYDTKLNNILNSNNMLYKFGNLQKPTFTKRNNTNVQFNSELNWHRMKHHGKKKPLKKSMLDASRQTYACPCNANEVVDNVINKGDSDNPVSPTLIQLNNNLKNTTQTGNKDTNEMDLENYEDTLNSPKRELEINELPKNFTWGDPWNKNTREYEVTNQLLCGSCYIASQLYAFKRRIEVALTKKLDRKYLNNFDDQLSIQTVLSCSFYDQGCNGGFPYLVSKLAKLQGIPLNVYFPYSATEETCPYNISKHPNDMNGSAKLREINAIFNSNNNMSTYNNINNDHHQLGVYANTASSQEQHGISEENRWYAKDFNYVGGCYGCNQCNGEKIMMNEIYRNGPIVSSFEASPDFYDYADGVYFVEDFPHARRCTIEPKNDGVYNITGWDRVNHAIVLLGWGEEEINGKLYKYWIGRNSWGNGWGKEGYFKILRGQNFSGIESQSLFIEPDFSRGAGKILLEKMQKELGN
`CCC(Sc1nc(=O)cc(N)n1CCc1ccccc1)C(=O)Nc1nc(-c2ccccc2)cs1` (stereo not shown): the “% Inhibition @ 10 uM” value was 0.9%. As to `Cc1ccc(-c2noc(CN(C(=O)C(C)(C)C)C(C)C)n2)cc1`, the “% Inhibition @ 10 uM” value is -4.31%. As for `Cc1cc(=O)oc2c(CN(CCO)CCO)c(O)c(O)cc12`, the figure is -2.77%.

`CN1C(=O)/C(=C2/C(=O)Nc3ccc(Br)cc32)S/C1=N/c1ccc(Cl)cc1`: the “% Inhibition @ 10 uM” value is -3.87%. Then `CCOC(=O)N1CCN(C(=O)C2CCCN(S(C)(=O)=O)C2)CC1` (stereo not shown), with -2.99%; and `COc1ccc(/N=C/c2c(N)nn(-c3ccccc3)c2O)cc1`, with -2.8%; and `CC(=O)N(c1ccc2oc3c(c2c1)CCCC3)S(=O)(=O)c1ccc(F)cc1`, with 6.68%. As to `Clc1ccc(Cl)c(OCCCCN2CCCCC2)c1`, the “% Inhibition @ 10 uM” value was -2.48%.

As to `Cc1cccc(OCC(=O)Nc2ccc(CC#N)cc2)c1`, the “% Inhibition @ 10 uM” value was 0.231%. On to `O=[N+]([O-])c1cc(CN2CCN(c3cccc(C(F)(F)F)c3)CC2)ccc1Cl`, for which the “% Inhibition @ 10 uM” value is recorded as 4.66%. For the compound `Cc1nc(SCC(C)C)c(C#N)c(C)c1C`, the “% Inhibition @ 10 uM” value is reported as -0.99%. As for `N#CC1=C(N)Oc2[nH]nc(-c3cccs3)c2C1c1ccc(Br)s1` (stereo not shown), the figure is 3.92%.

As for `Cc1nc2nc(N)nn2c(O)c1C`, the “% Inhibition @ 10 uM” value is listed as 1%. As for `CC1CCC(NC(=O)CCc2nnc3n(CCc4ccccc4)c(=O)c4ccccc4n23)CC1` (stereo not shown), the figure is 2.6%. Then `COCc1cc(C)nc(Nc2ccccc2C)c1C#N`, with 4.68%; and `COc1ccc(-c2noc(CSCC(=O)NCCCN(C)Cc3ccccc3)n2)cc1OC`, with -6.37%. Consider `Cc1cccn2c(=O)c(/C=C(\C#N)C(=O)NC3CCCCC3)c(Oc3ccccc3)nc12`, for which the “% Inhibition @ 10 uM” value was -3.23%. As for `O=C(NCCc1ccc(Cl)cc1)C1CCN(c2nnc(N3CCCC3=O)s2)CC1`, the figure is 3.67%; as for `O=C(c1ccccc1)N1CCN(C2CCN(Cc3ccccc3)CC2)CC1`, -3.09%; as for `OCCNCc1ccccc1OCc1ccc(F)cc1`, 1.64%. Take `Cc1ccc(/C=C/C2=CC(C)(C)NC(S)=N2)cc1`: the “% Inhibition @ 10 uM” value is recorded as -7.21%.

With `CC1CCc2c(C(=O)NCC3CCCO3)csc2C1` (stereo not shown), the “% Inhibition @ 10 uM” value is listed as -3.21%. As for `O=c1c2oc3ccccc3c2ncn1Cc1cccc(C(F)(F)F)c1`, the figure is -2.97%. Then `Clc1ccc(CNc2nc3ccccc3n2CCN2CCOCC2)cc1`, with -1.11%; and `Cn1cnnc1SCc1ccc(Cl)cc1Cl`, with -1.32%.

Consider `CN(C)CCNC(=O)CNC(=S)N(CCCN1CCOCC1)Cc1cccs1`, for which the “% Inhibition @ 10 uM” value was -3.94%. Then `O=C(NCc1ccc(F)cc1)c1ccccc1C(=O)NCc1ccc(F)cc1`, with 3.67%; and `COc1ccc(C(=O)Nc2ccccc2C(=O)O)cc1`, with -3.92%.

The values above are taken from article PMC6919601, “Identification of Plasmodium dipeptidyl aminopeptidase allosteric inhibitors by high throughput screening” (PLoS ONE, 2019).
